# Experimental data: patent US5451518A, “Purified human ceramide-activated protein kinase” (Sloan-Kettering Institute for Cancer Research, priority 1992, dated 1995)
# Read-outs that look alike come from different tables or passages of the source.
# Assays:
# [1] = test system: ceramide-activated protein kinase; details: for effect of cations / chelator on kinase activity toward EGFR peptide: Mg^2+ 25 mM, Mn^2+ 1-10 mM, Zn^2+ 1-10 mM, Ca^2+ 0.001-10 mM, EGTA 1 mM alone; for effect on EGFR peptide phosphorylation (in words): A-431
# EL-4 cells = experiment: Ceramide levels in intact EL-4 cells; assay type: cell-based, murine; details: maximally effective concentrations (n=5), SMase 1×10^-3 U ml^-1
# Experimental: Time course (FIG. 12A) and dose response (FIG. 12B). Cells were grown to growth arrest (1-1.5×10^6 cells ml^-1) in DME/Ham's F12 medium (1:1, v/v) containing 10% horse serum and for 48 hours [^3 H]choline (1 μCi ml^-1). On the day of an experiment, cells were resuspended back into the same medium at 10×10^6 cells ml^-1 and stimulated with 40 ng ml^-1 IL-1β for the indicated times (FIG. 12A) or for 30 minutes with increasing concentrations of IL-1β (FIG. 12B). Human IL-1β may be obtained using methods well knownto those skilled in the art. Reactions were terminated with CHCl3 :CH3 OH:HCl (100:100:1) containing 10 mM EDTA (82). Lipids in the organic phase extract were dried under N2 and subjected to mild alkaline hydrolysis (0.1M methanolic KOH for 1 hour at 37° C.) to remove glycerophospholipids. Spingomyelin was resolved by thin-layer chromatography (TLC) using CHCl3 :CH3 OH:CH3 COOH:H2 O (60:30:8:5) as solvent, identified by iodine vapor staining, and quantified by liquid scintillation spectrometry. As previously reported, the use of [^3 H]choline as a measure of sphingomyelin content was validated by simultaneous phospholipid phosphorus measurements (62). Each value represents the mean ± SEM of triplicate determinations from four experiments in (FIG. 12A), and one representative of four similar studies performed in triplicate in (FIG. 12B).
# Cells were stimulated as in FIGS. 12A and 12B with IL-1β (40 ng ml^-1) and ceramide contained within the organic phase extract quantified enzymatically using the E. coli diacylglycerol kinase reaction (57). Lipids were resolved by TLC using CHCl3 :CH3 OH:CH3 COOH (65/15/5) as solvent, autoradiographed and quantified by liquid scintillation spectrometry. Each value represents the mean ± SEM of triplicate determinations from 10 experiments.
# HL-60 cells [2] = details: cited from earlier work
# [3] = test system: ceramide-activated protein kinase; details: nuclei-free supernates; read-out: Michaelis constant (Km) for ATP; cited from earlier work
# [4] = test system: ceramide-activated protein kinase; details: read-out: Michaelis constant (Km) for ATP; EL-4 microsomal membrane, baseline
# Experimental: Homogenates were centrifuged at 500×g for 5 minutes to remove nuclei and at 200,000×g for 30 minutes to prepare microsomal membranes. Membranes were resuspended into homogenizing buffer (2.2 μg membrane protein μl^-1). For assay of kinase activity, the reaction mixture contained 20 μl of microsomal membrane, 40 μl EGFR peptide (4 mg ml^-1 in 25 mM Hepes, pH 7.4) and 100 μl buffer (50 mM HEPES, pH 7.4, 20 mM MgCl2) (40). Phosphorylation was initiated at 22° C. by addition of 40 μl [γ-^32 P] ATP (100 μM final concentration) and terminated at the indicated times by addition of 40 μl of 0.5M ATP in 90% formic acid. Phosphorylated peptide was eluted from a C18 Sep pak cartridge (Millipore), lyophilized, and resolved by C18 reverse phase HPLC using a linear gradient of acetonitrile. […] All assays were performed under conditions determined as linear for time and enzyme concentration. Enzyme activity was determined from the percent conversion of substrate to product and the specific radioactivity of [γ-^32 P] ATP. […] Values (mean ± range) represent duplicate determinations from two experiments.
# Activity was measured by the transfer of ^32 P from the γ-position of ATP to EGFR peptide (AA 663-681 of the EGFR). The effect of IL-1β on kinase activity was determined using microsomal membranes derived from cells stimulated with IL-1β.
# [5] = test system: ceramide-activated protein kinase; details: C8-cer 0.3 μM added to medium
# HL-60 cells [6] = details: cited from earlier work; remark: listed apart in the source
# EL4 cells = details: for IL-2 secretion in combination with TPA (in words): 24 h
compound,measurement,setting,value
O=C(O)CN(CCOCCOCCN(CC(=O)O)CC(=O)O)CC(=O)O [EGTA],effect of cations / chelator on kinase activity toward EGFR peptide,[1],peptide phosphorylation did not occur
"CCCCCCCCCCCCCC(=O)O[C@@H]1[C@@H](C)[C@@]2(O)[C@@H](C=C(CO)C[C@]3(O)C(=O)C(C)=C[C@@H]23)[C@@H]2C(C)(C)[C@]12OC(C)=O [TPA, 12-0-tetradecanoylphorbol-13-acetate, reference compound]",ceramide response (in words),EL-4 cells,failed to elicit a ceramide response
"CCCCCCCCCCCCC/C=C/[C@@H](O)[C@H](CO)NC(C)=O [N-acetylsphingosine, reference compound]",monocytic differentiation,HL-60 cells [2],could replace these agents in induction of monocytic differentiation
CCCCCCCCCCCCCCCC(=O)O [palmitic acid],effect on EGFR peptide phosphorylation (in words),[1],failed to increase EGFR peptide phosphorylation
"CNC[C@H](O)c1ccc(O)c(O)c1 [epinephrine, reference compound]",ceramide response (in words),EL-4 cells,failed to elicit a ceramide response
[Mg+2] [Mg^2+],kinase activity with Mg^2+,"[1]; 0.1 mM Mg^2+, 2 minutes",4 pmol.min^-1 (mg of protein^-1)
same,effect of cations / chelator on kinase activity toward EGFR peptide,[1],did not further increase activity
same,concentration for maximal activity (Mg^2+),"[1]; Mg^2+, 2 minutes",10 mM
same,EC50,"[1]; read-out: ED50 (Mg^2+), Mg^2+-dependence of peptide phosphorylation, 2 minutes",~3.5 mM
"Nc1ncnc2c1ncn2[C@@H]1O[C@H](COP(=O)(O)OP(=O)(O)OP(=O)(O)O)[C@@H](O)[C@H]1O [ATP, adenosine triphosphate]",Km,[3],15 µM
same,Km,[4],70 µM
same,Km,"[1]; read-out: Apparent Km for ATP, A-431, 5 minutes",15 µM
"CCCCCCCCCCCCC/C=C/[C@@H](O)[C@H](CO)NC(=O)CCCCCCC [C8 -cer, N-octanoylsphingosine, reference compound]",increase in kinase activity,[5],1.2 -fold of control
same,effect on EGFR peptide phosphorylation (in words),[1],similarly effective
"C=C1/C(=C\C=C2/CCC[C@]3(C)[C@@H]([C@H](C)CCCC(C)(C)O)CC[C@@H]23)C[C@@H](O)C[C@@H]1O [1,25-dihydroxyvitamin D3, reference compound]",sphingomyelin degradation to ceramide / ceramide level (in words),HL-60 cells [6]; HL-60,stimulate sphingomyelin degradation to ceramide
same,monocytic differentiation,HL-60 cells [2],induce monocytic differentiation
sphingomyelinase,elevation in ceramide levels in HL-60 cells,HL-60 cells [6]; sphingomyelinase 1×10^-3 U ml^-1,two-fold elevation in ceramide levels
same,IL-2 secretion in combination with TPA (in words),EL4 cells,replaced IL-1β to stimulate IL-2 secretion
same,IL-2 secretion in combination with TPA (in words),EL4 cells; listed as Sphingomyelinase,induced secretion
same,concentrations of TPA at which sphingomyelinase induced IL-2 secretion,"EL4 cells; sphingomyelinase 1×10^-3 U ml^-1, n=2",0.5 to 20 ng/mL
concanavalin A [reference compound],ceramide response (in words),EL-4 cells,failed to elicit a ceramide response
